In PubChem BioAssay AID686979 (National Center for Advancing Translational Sciences (NCATS), 2013):
Where “and” joins values, the source holds several entries; their conditions need not be identical. Equal entries are not always repeated. Screen size: about 420,000 compounds; about 50,000 (12%) were called active. This list was built around the results that the source calls inconclusive (neither active nor inactive); the mix of calls is not that of the screen. The call rests on the fitted dose curve; in most records, active means well fitted inhibition curve with a large enough effect; inconclusive means small, poorly fitted or top-dose-only effect; inactive means flat fitted curve, though single readings scatter. Potencies of inconclusive entries are doubtful fits and often do not repeat.
On the % scale 0 is the no-effect control and ±100 the full control effect; potency means the concentration at half of the fitted maximal effect; tags describe the fitted curve by direction and shape.

Assay: qHTS for Inhibitors of human tyrosyl-DNA phosphodiesterase 1 (TDP1): qHTS in cells in presence of CPT; further: nearly all actives have a fitted effect of over 55% in size
Conditions: chicken DT40 Tdp1-/-;hTDP1 cells + 20 nM CPT, ATP luminescence, 48 h; activity change, negative = growth inhibition: at 46.2 µM (top of the series) unless noted
How it was run: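 Chicken DT40 Tdp1-/- cells stably complemented with human TDP1 were seeded at 400 cells/well in medium containing 20 nM camptothecin, exposed to pin-transferred compounds, and grown at 37 °C for at least 48 hr. Viability was read as ATP luminescence.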
With `COc1ccc(CNC(=O)C[C@H]2C[C@H](C(=O)N3CCCCC3)[C@@]3(CCc4ccccc4)c4[nH]c5ccc(Cl)cc5c4CCN3C2=O)cc1OC` the Potency was active: 10.3 µM.
For `COc1ccc(/C=N/NC(=O)c2cc(-c3cccc(C)c3)nc3ccccc23)cc1O`, the Potency was inconclusive: 8.2 µM [inhibitor, partial curve, poor fit].
In the case of `Cc1cc(C)c(S(=O)(=O)N2CCC3(CC2)OCCN3S(=O)(=O)c2cccs2)c(C)c1`, the Potency is reported as inconclusive: 25.9 µM [inhibitor, single point].
With `CCC(=O)C1=C(c2ccc(OC)c(OC)c2)N(C(=O)CC)n2c(nnc2-c2ccc(C)cc2)S1` the “activity change, negative = growth inhibition” value was inactive: -2.82%.
For `COc1ccc(C(=O)C2C(c3ccc(-c4ccccc4[N+](=O)[O-])o3)NC(=O)NC2(O)C(F)(F)F)cc1` (centres undefined), the Potency was active: 20.6 µM.
For `O=C(Nc1ccc(F)cc1)C(c1ccnc2ccccc12)N1CCN(c2cccc(C(F)(F)F)n2)CC1` (centres undefined), the Potency was inconclusive: 32.6 µM [inhibitor, partial curve, poor fit].
In the case of `COc1ccccc1C(=O)NCC(=O)N1CCN(S(=O)(=O)c2ccccc2C(F)(F)F)CC1`, the Potency is reported as inconclusive: 14.6 µM [inhibitor, single point].
With `COc1ccccc1/C=C/C=N/Nc1cccc(C(=O)O)c1` the “activity change, negative = growth inhibition” value was inactive: 1.63%.
For `CCCN1CCC(NC(=S)Nc2ccc(C(=O)OCC)cc2)CC1`, the Potency was inconclusive: 18.4 µM [inhibitor, single point].
For `Cc1cccc(NS(=O)(=O)c2ccc(C(=O)NCCCN3CCCC3=O)cc2)c1C`, the Potency was inconclusive: 23.1 µM [inhibitor, single point].
In the case of `Cc1ccc2c(c1)C(=O)N1[C@H]3c4cc(Br)ccc4OC[C@@H]3[C@H](c3ccccc3)[C@]1(C)C(=O)N2`, the Potency is reported as active: 23.1 µM.
In the case of `O=C(COc1ccccc1)N1CCN(c2ccc([N+](=O)[O-])c(N3CCCCC3)c2)CC1`, the Potency is reported as inconclusive: 20.6 µM [inhibitor, single point].
With `CCOC(=O)c1ccc(NC(=O)CSc2nc3ccccc3c(=O)n2CCC(=O)NC2CCCCC2)cc1` the “activity change, negative = growth inhibition” value was inactive: -2.75%.
In the case of `O=C1C=C(NCc2ccccc2)CCC1`, the “activity change, negative = growth inhibition” value is reported as inactive: -4.11%.
With `CC1(C)S[C@@H]2[C@H](NC(=O)COc3ccccc3)C(=O)N2[C@@H]1C(=O)OCc1cccc2cccnc12` the “activity change, negative = growth inhibition” value was inactive: 11.7%.
In the case of `O=C(COc1ccccc1Cl)Nc1ccc(S(=O)(=O)Nc2ccccn2)cc1`, the activity change, negative = growth inhibition is reported as inconclusive: -33.2% [inhibitor].
In the case of `COc1ccc(N2CC(C(=O)N3CCOCC3)CC2=O)cc1` (centres undefined), the “activity change, negative = growth inhibition” value is reported as inactive: -2.56%.
In the case of `Cc1ccc(N2C(=O)C3ON(c4ccccc4)C(CC(C)C)C3C2=O)cc1` (centres undefined), the “activity change, negative = growth inhibition” value is reported as inactive: -11%.
With `CC1=CC2=NC(=O)CC(C)(C(=O)N(CC(=O)NC3CCCC3)c3cc(C)cc(C)c3)N2C=C1` (centres undefined) the Potency was active: 13 µM.
In the case of `S=C(NCCCc1ccccc1)NC1CCCCC1`, the Potency is reported as inconclusive: 20.6 µM [inhibitor, single point].
With `COC(=O)c1ccc(NC(=O)C23CC4CC(C2)CC(n2cnc(Cl)n2)(C4)C3)cc1` the Potency was active: 20.6 µM.
In the case of `CCC(C)NC(=O)CNC(=O)c1nn(-c2ccc(OC)cc2OC)c(=O)c2ccccc12` (centres undefined), the “activity change, negative = growth inhibition” value is reported as inactive: -0.584%.
In the case of `C/C=C/C=N/NC(=O)CN(c1ccc(Br)cc1)S(=O)(=O)c1ccccc1`, the “activity change, negative = growth inhibition” value is reported as inactive: 5.42%.
With `COc1cccc(-c2csc(/C(C#N)=C/Nc3cc4oc5ccccc5c4cc3OC)n2)c1` the “activity change, negative = growth inhibition” value was inactive: 0.779%.
For `CC(C)=C1C2C=CC1C(C(=O)Nc1cc(C)ccc1C)C2C(=O)O` (centres undefined), the Potency was inconclusive: 29.1 µM [inhibitor, single point].
For `Cc1ccc(Oc2cc(N3CCOCC3)nc(-c3ccccc3)n2)cc1`, the Potency was inconclusive: 5.8 µM [inhibitor, partial curve].
For `COCCNC(=O)C1(C)CCN(Cc2csc(-c3ccc(Cl)cc3)n2)C1` (centres undefined), the Potency was inconclusive: 20.6 µM [inhibitor, single point].
With `CCOC(=O)N1CCN(CC(O)COc2ccc(-c3ccccc3)cc2)CC1` (centres undefined) the Potency was inconclusive: 29.1 µM [inhibitor, single point].
With `Cc1nn(-c2ccccc2)c(Cl)c1/C=N/Nc1ccc(Cl)c(C(=O)O)c1` the “activity change, negative = growth inhibition” value was inactive: -1.11%.
With `O=C(N/N=C/c1cc([N+](=O)[O-])ccc1O)c1c[nH]c2ccccc12` the Potency was inconclusive: 23.1 µM [inhibitor, single point].
For `O=C(CSc1nnc(-c2ccc(F)cc2)o1)N1CCN(C(=O)c2ccco2)CC1`, the Potency was inconclusive: 18.4 µM [inhibitor, single point].
With `CC(=O)NS(=O)(=O)c1cccnc1Nc1cccc(Cl)c1C` the Potency was inconclusive: 29.1 µM [inhibitor, single point].
For `CCOc1c2ccc(C(=O)NCc3ccco3)cc2nn1CC`, the “activity change, negative = growth inhibition” value was inactive: -2.54%.
For `CC(=O)c1cc(-c2ccccc2)n(CC(=O)Nc2ccc(C)c(C)c2)c1C`, the Potency was inconclusive: 18.4 µM [inhibitor, single point] and inconclusive: 6.51 µM [inhibitor, partial curve].
In the case of `COc1ccc(CNC(=O)C(=O)NCC2OCCCN2S(=O)(=O)c2cccs2)cc1` (centres undefined), the “activity change, negative = growth inhibition” value is reported as inactive: 0.576%.
For `COc1ccc(OC)c(CNS(=O)(=O)c2ccc(-c3coc(C)n3)cc2)c1`, the Potency was inconclusive: 14.6 µM [inhibitor, partial curve].
In the case of `O=C(c1ccc(Cl)c(S(=O)(=O)N2CCCCC2)c1)N1CCCC1`, the “activity change, negative = growth inhibition” value is reported as inactive: -16.4%.
With `Cc1cccc(OCc2nnc(SCc3cc(=O)[nH]c4ccccc34)n2-c2ccccc2)c1` the Potency was inconclusive: 25.9 µM [inhibitor, single point].
For `C[C@@H]1CN([C@H](C)CO)S(=O)(=O)c2ccc(Br)cc2O[C@H]1CN(C)C(=O)C1CCCCC1`, the Potency was active: 25.9 µM.
With `COc1ccc(S(=O)(=O)N2CCCCC2)cc1NC(=O)Cn1c(=O)cnc2ccccc21` the Potency was inconclusive: 29.1 µM [inhibitor, single point].
For `O=C(Nc1cccc(S(=O)(=O)N2CCCCCC2)c1)c1cncc(Br)c1`, the “activity change, negative = growth inhibition” value was inactive: -24.6%.
In the case of `CCCOc1ccc(F)cc1-c1cc(C(=O)NCc2ccc(F)cc2)[nH]n1`, the Potency is reported as active: 14.6 µM.
For `Cc1ccccc1OCCn1cc(/C=C(\C#N)C(=O)NCc2ccco2)c2ccccc21`, the “activity change, negative = growth inhibition” value was inactive: 2.86%.
With `COC(=O)c1ccccc1NC(=O)Cn1nc(C(F)(F)F)c2c1CCC2` the Potency was inconclusive: 13 µM [inhibitor, partial curve, poor fit].
